Out of some 330,000 compounds screened, about 300 (0.091%) were called active. Inconclusive results, whose numbers are uncertain, are shown with a selection of clear calls. Calls come from the whole dose curve; as a rule, active = well fitted inhibition curve with a large enough effect; inconclusive = small, poorly fitted or top-dose-only effect, or effect the other way, or another doubt; inactive = no such curve, though single readings can be large or run the other way. No potency is given beside an inconclusive call; the fits are too rough.
biological target: Lysosomal acid glucosylceramidase (Homo sapiens) (UniProt P04062); assay: qHTS Assay for Inhibitors and Activators of N370S glucocerebrosidase as a Potential Chaperone Treatment of Gaucher Disease; conditions: N370S GC spleen homogenate, 4MU-glucoside fluorescence; activity change, negative = inhibition: at 59.4 µM (top of the series) unless noted;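 for activity change, negative = inhibition: 0% = full enzyme activity and -100% = no enzyme basal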
Potency is the fitted concentration of half-maximal effect.

Structure (SMILES)	Potency	activity change, negative = inhibition
CCC(C)n1c(SCC(=O)Nc2ccccc2C(F)(F)F)nc2ccsc2c1=O (centres undefined)	inconclusive [activator, partial curve]	
COc1ccc(CN(CC(=O)NC2CCCC2)C(=O)CCC(=O)Nc2nccs2)cc1	inconclusive [activator, single point]	
CC(=O)c1cccc(NC(=S)N2CCN(S(=O)(=O)c3ccc(F)cc3)CC2)c1		inactive: -3.16%
Fc1ccc(NC(=S)NC2CC3CCCC(C2)N3Cc2cccs2)cc1 (centres undefined)		inactive: 3.55%
CC(C)[C@H](NC(=O)c1ccco1)C(=O)OCC(=O)Nc1ccc(F)cc1	inconclusive [activator, single point]	
COc1ccc(C2=NOC(Cn3nc(C(=O)NCc4ccccc4OC)cc3-c3ccccc3)C2)cc1 (centres undefined)	inconclusive [activator, single point]	
C=CCOc1cccc(C2C(C(=O)c3ccc(C)o3)=C(O)C(=O)N2CCN(C)C)c1 (centres undefined)	inconclusive [inhibitor, partial curve]	
CCN(CC)S(=O)(=O)c1ccc(N2CCOCC2)c(NC(=O)c2ccccc2F)c1	inconclusive [activator, full curve]	
CN(C)CCN1C(=O)C(O)=C(C(=O)c2cc3ccccc3o2)C1c1ccccn1 (centres undefined)	inconclusive [inhibitor, partial curve]	
COc1cc(/C=C/c2ccc3cccc(O)c3n2)ccc1O		inactive: -11.8%
CCCNC(=O)COC(=O)c1cc2c(=O)n3ccccc3nc2s1	inconclusive [activator, full curve]	
COc1ccc(F)c(CN2CCCC(CNS(=O)(=O)c3cccc4cccnc34)C2)c1 (centres undefined)	inconclusive [inhibitor, full curve, poor fit]	
Oc1ccccc1C1=NN(c2ccccc2)C(c2ccc(F)cc2)C1 (centres undefined)	inconclusive [activator, partial curve]	
CCN(c1ccccc1)S(=O)(=O)c1ccc2[nH]c(=O)c(=O)[nH]c2c1	inconclusive [inhibitor, single point]	
Cc1ccc(C(=O)N2CCc3ccccc32)o1		inactive: 14.8%
O=C(Cc1nn[nH]n1)NCc1ccccc1Cl		inconclusive: 35.6% [activator]
CC(=O)N1CCN(c2ccc(NCc3cccc4ccccc34)cc2)CC1	inconclusive [inhibitor, partial curve, poor fit]	
CCCN1CCC(=O)N(C(CSc2ccc(Br)cc2)c2ccccc2)CC1 (centres undefined)		inactive: -4.95%
COc1cc(CNC(=O)CCCCCCC(C)C)ccc1O	inconclusive [activator, single point]	
Nc1ccc(Nc2ccccc2)c(S(=O)(=O)O)c1		inactive: 5.03%
CC(C)CC(OC(=O)c1nsc(Cl)c1Cl)C(=O)NCC1CCCO1 (centres undefined)	inconclusive [inhibitor, full curve]	
COc1ccc(NS(=O)(=O)c2cccc(C(=O)NCC(c3ccc(F)cc3)N3CCOCC3)c2)cc1 (centres undefined)	inconclusive [inhibitor, partial curve]	

Structure (SMILES)	Potency	activity change, negative = inhibition
CCCCN(CC)CCCNC(=O)c1cn(C)c2ccc(S(=O)(=O)N(C)C3CCCCC3)cc2c1=O	inconclusive [inhibitor, partial curve]	
C=CCNc1oc(/C=C/c2ccccc2)nc1C#N	inconclusive [activator, partial curve]	
Cc1ccc(C2=NCCn3nc4cc(C(F)(F)F)ccc4c32)cc1	inconclusive [inhibitor, single point]	
Cc1[nH]c2ccccc2c1/C=N/NC(=O)CNC(=O)c1cccs1	inconclusive [activator, single point]	
CC(=O)c1cccc(NC(=S)NC(=O)c2ccc(Cl)cc2)c1		inactive: 6.46%
Cc1cccc(-c2nc(Nc3cccc(O)c3)c3ccccc3n2)c1	inconclusive [inhibitor, full curve]	
Clc1ccc(-c2c[n+](Cc3ccc(Cl)c(Cl)c3)c3n2CCC3)cc1	inconclusive [inhibitor, single point]	
CC(=O)Nc1ccc2nc3ccccc3nc2c1		inactive: -9.83%
Cc1ccc(CC(Cc2nc3ccccc3[nH]2)c2nc3ccccc3[nH]2)cc1 (centres undefined)		inactive: -7.91%
CC1CCC2C(=O)OC(CN3C(=O)c4ccccc4C3=O)CN2C1c1ccc(Br)cc1 (centres undefined)		inactive: 18.9% [at 12.8 µM]
O=C(Cn1nnc2ccccc2c1=O)N1CCOCC1	inconclusive [activator, partial curve, poor fit]	
CCOc1cc(/C=N/O)cc(Br)c1OCC(=O)NCc1ccccc1	inconclusive [activator, partial curve]	
Cc1cc(=O)oc2cc(OCC(=O)NC(Cc3c[nH]c4ccc(O)cc34)C(=O)O)c(Cl)cc12 (centres undefined)		inactive: 0.577%
CCOC(=O)c1cc2c(=O)n3ccccc3nc2n(Cc2ccco2)c1=NC(=O)c1ccccc1OC	inconclusive [activator, partial curve]	
COc1cc(NC(=O)c2oc3ccccc3c2C)ccc1NC(=O)c1ccco1	inconclusive [activator, single point]	
Nc1nc2ccccc2n1C(=O)c1ccc(F)cc1		inactive: 10%
COc1ccc(-c2nc3ccc(C)cn3c2NCc2ccc3c(c2)OCO3)cc1		inactive: 3.29%
O=C(NNC(=O)c1csc(-c2cccnc2)n1)c1ccccc1	inconclusive [activator, partial curve, poor fit]	
CCOc1ccc(NC(=O)CN(C)C(=O)c2cccnc2SC)cc1OCC	inconclusive [inhibitor, partial curve, poor fit]	
COc1ccc(-c2csc(NC(=O)COC(=O)C3=COCCO3)n2)cc1		inactive: 3.17%
COc1ccc(OCCn2cc(/C=N/NC(=O)c3ccncc3)c3ccccc32)cc1	inconclusive [inhibitor, single point]	
Cc1cccn2c(=O)c3cc(C(=O)NC4CCCCCC4)sc3nc12	inconclusive [activator, partial curve]	
